Consider 16 test systems from the supplement of paper PMC9927326.

MIC of clinical C. albicans isolates, CLSI broth microdilution (ranges and time not stated); higher = less susceptible. Call: susceptible or wild type [S] / resistant or non-wild type [R] by CLSI breakpoints or epidemiological cut-offs; intermediate and dose-dependent carry no call here (the paper groups them with resistant). '<=' and '>=' mark each drug's lowest and highest value, inferred; the source prints them plain. Isolates are numbered anew.

What all share (assay): CLSI broth microdilution.
Compound in one assay: CC[C@H](C)C[C@H](C)CCCCCCCCC(=O)N[C@H]1C[C@@H](O)[C@@H](NCCN)NC(=O)[C@@H]2[C@@H](O)CCN2C(=O)[C@H]([C@H](O)CCN)NC(=O)[C@H]([C@H](O)[C@@H](O)c2ccc(O)cc2)NC(=O)[C@@H]2C[C@@H](O)CN2C(=O)[C@H]([C@@H](C)O)NC1=O [caspofungin]
Compound in the next assay: Nc1[nH]c(=O)ncc1F [flucytosine]
Compound in another assay: CCC(C)n1ncn(-c2ccc(N3CCN(c4ccc(OCC5COC(Cn6cncn6)(c6ccc(Cl)cc6Cl)O5)cc4)CC3)cc2)c1=O [itraconazole]
Compound in the next assay: OC(Cn1cncn1)(Cn1cncn1)c1ccc(F)cc1F [fluconazole]
Compound in another assay: C[C@@H](c1ncncc1F)[C@](O)(Cn1cncn1)c1ccc(F)cc1F [voriconazole]
Compound in a further assay: CCCCCOc1ccc(-c2ccc(-c3ccc(C(=O)N[C@H]4C[C@@H](O)[C@@H](O)NC(=O)[C@@H]5[C@@H](O)[C@@H](C)CN5C(=O)[C@H]([C@@H](C)O)NC(=O)[C@H]([C@H](O)[C@@H](O)c5ccc(O)cc5)NC(=O)[C@@H]5C[C@@H](O)CN5C(=O)[C@H]([C@@H](C)O)NC4=O)cc3)cc2)cc1 [anidulafungin]
Compound in a further assay: CCCCCOc1ccc(-c2cc(-c3ccc(C(=O)N[C@H]4C[C@@H](O)[C@@H](O)NC(=O)[C@@H]5[C@@H](O)[C@@H](C)CN5C(=O)[C@H]([C@H](O)CC(N)=O)NC(=O)[C@H]([C@H](O)[C@@H](O)c5ccc(O)c(OS(=O)(=O)O)c5)NC(=O)[C@@H]5C[C@@H](O)CN5C(=O)[C@H]([C@@H](C)O)NC4=O)cc3)no2)cc1 [micafungin]
Compound in another assay: CC[C@@H]([C@H](C)O)n1ncn(-c2ccc(N3CCN(c4ccc(OC[C@@H]5CO[C@@](Cn6cncn6)(c6ccc(F)cc6F)C5)cc4)CC3)cc2)c1=O [posaconazole]
Compound in a further assay: C[C@@H]1[C@H](O)[C@@H](C)/C=C/C=C/C=C/C=C/C=C/C=C/C=C/[C@H](O[C@@H]2O[C@H](C)[C@@H](O)[C@H](N)[C@@H]2O)C[C@@H]2O[C@](O)(C[C@@H](O)C[C@@H](O)[C@H](O)CC[C@@H](O)C[C@@H](O)CC(=O)O[C@H]1C)C[C@H](O)[C@H]2C(=O)O [amphotericin B]

In the case of “Candida albicans isolate 35 (Erg11p: E266D, Fur1p: WT, Tac1p: T885K,I558V,A430V,A377V,F189S,N174D,M170I,M170V,K87N)”, the MIC with caspofungin was 0.03 mg/L [S]; with flucytosine, no more than 0.06 mg/L [S]; in the assay with itraconazole, no more than 0.015 mg/L [S]; with fluconazole it was 0.25 mg/L [S]; with voriconazole, no more than 0.008 mg/L [S]; in the assay with anidulafungin it was 0.12 mg/L [S]. In addition, the MIC in the assay with micafungin was no more than 0.008 mg/L [S]; with posaconazole it was 0.015 mg/L [S]; with amphotericin B, 0.5 mg/L [S].

Regarding “Candida albicans isolate 36 (Erg11p: V488I,E266D, Fur1p: WT, Tac1p: N896S,M170V,S108N)”, the MIC with caspofungin is 0.03 mg/L [S]; with flucytosine it was no more than 0.06 mg/L [S]; with itraconazole it was no more than 0.015 mg/L [S]; in the assay with fluconazole, no more than 0.12 mg/L [S]; with voriconazole, no more than 0.008 mg/L [S]; in the assay with anidulafungin, 0.03 mg/L [S]. Moreover, the MIC with micafungin is no more than 0.008 mg/L [S]; with posaconazole it was 0.015 mg/L [S]; with amphotericin B it was 0.5 mg/L [S].

Take “Candida albicans isolate 37 (Erg11p: E266D, Fur1p: WT, Tac1p: N896S,I558V,A377V,F189S,N174D,M170I,K87N)”: the MIC in the assay with caspofungin was 0.03 mg/L [S]; with flucytosine, no more than 0.06 mg/L [S]; with itraconazole it was 0.03 mg/L [S]; in the assay with fluconazole it was 1 mg/L [S]; with voriconazole, 0.015 mg/L [S]; with anidulafungin, no more than 0.015 mg/L [S]. The MIC is 0.015 mg/L [S] with micafungin, 0.03 mg/L [S] in the assay with posaconazole and 0.25 mg/L [S] with amphotericin B.

Turning to “Candida albicans isolate 38 (Erg11p: WT, Fur1p: WT, Tac1p: WT)”, the MIC in the assay with caspofungin is 0.03 mg/L [S]; with flucytosine, no more than 0.06 mg/L [S]; in the assay with itraconazole, 0.03 mg/L [S]; with fluconazole it was 0.5 mg/L [S]; in the assay with voriconazole it was no more than 0.008 mg/L [S]; with anidulafungin it was no more than 0.015 mg/L [S]. Moreover, the MIC was no more than 0.008 mg/L [S] with micafungin, 0.015 mg/L [S] in the assay with posaconazole and 0.25 mg/L [S] with amphotericin B.

As to “Candida albicans isolate 39 (Erg11p: V488I,E266D, Fur1p: WT, Tac1p: I558V,A377V,F189S,N174D,M170I,K87N)”, the minimum inhibitory concentration (MIC) with caspofungin is 0.06 mg/L [S]; with flucytosine it was no more than 0.06 mg/L [S]; with itraconazole, 0.03 mg/L [S]; with fluconazole, 0.25 mg/L [S]; with voriconazole, no more than 0.008 mg/L [S]; in the assay with anidulafungin, 0.12 mg/L [S]. For the same test system, the MIC with micafungin worked out at 0.015 mg/L [S]; with posaconazole it was 0.015 mg/L [S]; with amphotericin B, 0.25 mg/L [S].

“Candida albicans isolate 40 (Erg11p: V488I,E266D, Fur1p: WT, Tac1p: N896S,T229I,M170V,S108N)”: the MIC is 0.015 mg/L [S] with caspofungin; no more than 0.06 mg/L [S] in the assay with flucytosine; 0.06 mg/L [S] with itraconazole; 1 mg/L [S] in the assay with fluconazole; 0.015 mg/L [S] in the assay with voriconazole; no more than 0.015 mg/L [S] with anidulafungin. Also, the values for the MIC with micafungin, with posaconazole and in the assay with amphotericin B were no more than 0.008 mg/L [S], 0.03 mg/L [S] and 0.25 mg/L [S], respectively.

Regarding “Candida albicans isolate 41 (Erg11p: WT, Fur1p: WT, Tac1p: WT)”, the MIC with caspofungin was 0.03 mg/L [S]; with flucytosine, no more than 0.06 mg/L [S]; in the assay with itraconazole, 0.03 mg/L [S]; with fluconazole, 0.25 mg/L [S]; with voriconazole it was no more than 0.008 mg/L [S]; with anidulafungin, 0.06 mg/L [S]. Moreover, the values for the MIC in the assay with micafungin, with posaconazole and with amphotericin B were 0.015 mg/L [S], 0.03 mg/L [S] and 1 mg/L [S], respectively.

“Candida albicans isolate 42 (Erg11p: WT, Fur1p: WT, Tac1p: N896S)”: the MIC with caspofungin was 0.03 mg/L [S]; with flucytosine, no more than 0.06 mg/L [S]; with itraconazole, 0.03 mg/L [S]; with fluconazole it was 0.5 mg/L [S]; in the assay with voriconazole it was no more than 0.008 mg/L [S]; with anidulafungin it was no more than 0.015 mg/L [S]. Further, the MIC in the assay with micafungin was determined as 0.015 mg/L [S]; with posaconazole, 0.03 mg/L [S]; with amphotericin B it was 0.25 mg/L [S].

On to “Candida albicans isolate 43 (Erg11p: V488I,E266D, Fur1p: WT, Tac1p: N896S,I895T)”, for which the MIC with caspofungin is 0.03 mg/L [S]; with flucytosine, 0.12 mg/L [S]; with itraconazole, no less than 16 mg/L [R]; with fluconazole, 32 mg/L [R]; in the assay with voriconazole, no less than 8 mg/L [R]; with anidulafungin, no more than 0.015 mg/L [S]. Also, the results for the minimal inhibitory concentration (MIC) with micafungin, in the assay with posaconazole and with amphotericin B were 0.015 mg/L [S], 0.06 mg/L [S] and 0.5 mg/L [S], respectively.

As to “Candida albicans isolate 44 (Erg11p: WT, Fur1p: WT, Tac1p: N896S)”, the MIC is 0.03 mg/L [S] with caspofungin; no more than 0.06 mg/L [S] with flucytosine; 0.03 mg/L [S] in the assay with itraconazole; 0.5 mg/L [S] in the assay with fluconazole; no more than 0.008 mg/L [S] in the assay with voriconazole; 0.03 mg/L [S] with anidulafungin. Moreover, the MIC with micafungin was 0.015 mg/L [S]; in the assay with posaconazole it was 0.015 mg/L [S]; with amphotericin B, 0.25 mg/L [S].

On to “Candida albicans isolate 45 (Erg11p: WT, Fur1p: WT, Tac1p: I558V,A377V,F189S,N174D,M170I,K87N)”, for which the MIC with caspofungin is 0.03 mg/L [S]; in the assay with flucytosine it was no more than 0.06 mg/L [S]; with itraconazole it was no more than 0.015 mg/L [S]; with fluconazole, 0.25 mg/L [S]; with voriconazole it was no more than 0.008 mg/L [S]; in the assay with anidulafungin, 0.03 mg/L [S]. Also, the minimum inhibitory concentration (MIC) is 0.015 mg/L [S] with micafungin, 0.015 mg/L [S] with posaconazole and 0.5 mg/L [S] with amphotericin B.

For “Candida albicans isolate 46 (Erg11p: WT, Fur1p: WT, Tac1p: WT)”, the MIC in the assay with caspofungin is 0.03 mg/L [S]; with flucytosine, no more than 0.06 mg/L [S]; with itraconazole, 0.03 mg/L [S]; in the assay with fluconazole it was 1 mg/L [S]; with voriconazole it was 0.015 mg/L [S]; in the assay with anidulafungin it was 0.06 mg/L [S]. For the same test system, the MIC was found to be 0.015 mg/L [S] with micafungin, 0.03 mg/L [S] with posaconazole and 0.25 mg/L [S] with amphotericin B.

Take “Candida albicans isolate 47 (Erg11p: V437I,E266D, Fur1p: WT, Tac1p: S937L,I895T,L695F,I558V,F189S,L131I)”: the MIC with caspofungin is 0.03 mg/L [S]; with flucytosine it was no more than 0.06 mg/L [S]; in the assay with itraconazole, 0.03 mg/L [S]; with fluconazole it was 1 mg/L [S]; in the assay with voriconazole it was 0.015 mg/L [S]; in the assay with anidulafungin, 0.06 mg/L [S]. For the same test system, the values for the MIC with micafungin, with posaconazole and with amphotericin B were 0.015 mg/L [S], 0.015 mg/L [S] and 0.5 mg/L [S], respectively.

Consider “Candida albicans isolate 48 (Erg11p: G129A, Fur1p: WT, Tac1p: R869Q,L695F,I558V,A377V,F189S,M170V,L131I)”, for which the MIC in the assay with caspofungin is 0.06 mg/L [S]; with flucytosine it was no more than 0.06 mg/L [S]; in the assay with itraconazole, no more than 0.015 mg/L [S]; in the assay with fluconazole, 0.5 mg/L [S]; with voriconazole it was no more than 0.008 mg/L [S]; in the assay with anidulafungin it was no more than 0.015 mg/L [S]. Moreover, the MIC in the assay with micafungin was 0.015 mg/L [S]; with posaconazole, 0.03 mg/L [S]; with amphotericin B, 0.5 mg/L [S].

In the case of “Candida albicans isolate 49 (Erg11p: V488I,E266D, Fur1p: WT, Tac1p: N896S,I895T)”, the MIC in the assay with caspofungin was found to be 0.06 mg/L [S]; with flucytosine, 0.12 mg/L [S]; in the assay with itraconazole, 0.06 mg/L [S]; with fluconazole, 0.5 mg/L [S]; with voriconazole it was 0.06 mg/L [S]; with anidulafungin it was 0.03 mg/L [S]. Moreover, the MIC in the assay with micafungin turned out to be 0.015 mg/L [S]; with posaconazole, 0.03 mg/L [S]; in the assay with amphotericin B it was 0.5 mg/L [S].

“Candida albicans isolate 50 (Erg11p: E266D, Fur1p: WT, Tac1p: I558V,A377V,F189S,N174D,M170I,K87N)”: the MIC with caspofungin is 0.12 mg/L [S]; in the assay with flucytosine, no more than 0.06 mg/L [S]; in the assay with itraconazole, 0.06 mg/L [S]; in the assay with fluconazole, 0.25 mg/L [S]; with voriconazole it was no more than 0.008 mg/L [S]; with anidulafungin, 0.12 mg/L [S]. For the same test system, the MIC with micafungin is 0.015 mg/L [S]; with posaconazole, 0.03 mg/L [S]; with amphotericin B it was 1 mg/L [S].

As usually defined, the MIC is the lowest concentration that inhibits growth of the organism.
